Test results as given in PubChem BioAssay AID602179 (National Center for Advancing Translational Sciences (NCATS), 2012).
In all, about 390,000 compounds went through this assay and about 360 (0.092%) were called active. The inconclusive results got no clear call from the source; some entries with a clear call stand among them for comparison. Calls come from the whole dose curve; as a rule, active = well fitted inhibition curve with a large enough effect; inconclusive = small, poorly fitted or top-dose-only effect; inactive = no such curve, though single readings can be large or run the other way. Potencies of inconclusive entries are doubtful fits and often do not repeat.

Target: Isocitrate dehydrogenase [NADP] cytoplasmic (Homo sapiens) (UniProt O75874)
Experiment: qHTS for Inhibitors of mutant isocitrate dehydrogenase 1 (IDH1): qHTS; note: nearly all actives have a fitted effect of over 65% in size
Details: IDH1-R132H enzyme, NADPH consumption, diaphorase/resazurin fluorescence; series mostly up to 76.6 µM; activity change, negative = inhibition: at the top concentration
Summary of the method: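 IDH1-R132H (0.5 ug/mL dispensed) in pH 7.5 Tris buffer was preincubated 30 min with compound, then given a substrate mix of 0.016 mM NADPH and 2 mM alpha-KG for 80 min at room temperature; remaining NADPH was read by diaphorase/resazurin fluorescence.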
% is set by controls: 0 for no effect and ±100 for the full control effect; potency is the fitted concentration of half-maximal effect; tags give direction and shape of the fitted curve.

| Compound | Potency | activity change, negative = inhibition |
| --- | --- | --- |
| Cn1c(=O)c2c(nc(N3CCCCCC3)n2Cc2cccc3ccccc23)n(C)c1=O | inconclusive: 50.1 µM [inhibitor, single point] | – |
| CC(C)Sc1nc2c(c(=O)[nH]c(=O)n2C)n1CCc1ccccc1 | – | inactive: 3.21% |
| COc1ccccc1CNC(=O)COC(=O)c1ccc(NC(N)=O)cc1 | inconclusive: 58.5 µM [inhibitor, single point] | – |
| CC(C)(C)NC(=O)C[C@H]1C[C@H](C(=O)N2CCOCC2)[C@@]2(CCC3CCCC3)c3[nH]c4ccc(Cl)cc4c3CCN2C1=O | inconclusive: 44.7 µM [inhibitor, single point] | – |
| Nc1ccc(C(=O)N/N=C/c2cn(Cc3ccccc3F)c3ccccc23)cc1 | – | inactive: -11% |
| C[C@@H]1CN([C@@H](C)CO)S(=O)(=O)c2ccc(C#CC3CCCCC3)cc2O[C@@H]1CN(C)Cc1cccnc1 | inconclusive: 50.1 µM [inhibitor, single point] | – |
| Cc1cc(-c2ccc(C)c(S(=O)(=O)N3CCN(c4cccc(C(F)(F)F)c4)CC3)c2)on1 | – | inactive: 4.57% |
| CC(C)N1C(=O)/C(=C\c2nc3ccccc3c(=O)[nH]2)c2ccccc21 | inconclusive: 58.5 µM [inhibitor, single point] | – |
| CCc1nnc(NS(=O)(=O)c2ccc(N/C=C\C(=O)c3cccc4ccccc34)cc2)s1 | inconclusive: 52.1 µM [inhibitor, single point] | – |
| CCc1ccc(-n2nc(C)c3c(C(=O)Nc4cc(OC)cc(OC)c4)cc(C)nc32)cc1 | – | inactive: 0% |
| Oc1c(CN2CCOCC2)cc(CN2CCOCC2)c(O)c1O | – | inactive: -0.618% |
| COc1ccc(OCCSc2ccc(S(=O)(=O)N3CCCC3)cn2)cc1 | inconclusive: 58.5 µM [inhibitor, single point] | – |
| COC(=O)CCCCCN1C(=O)/C(=C\c2ccncc2)SC1=S | inconclusive: 58.5 µM [inhibitor, single point] | – |
| CC/C(=C\C1CCCCC1)C(NP(=O)(c1ccccc1)c1ccccc1)c1ccccc1 (stereo not given) | active: 28.2 µM | – |
| CCC(CO)Oc1cc(NCc2ccc(OC)cc2)c2ncn(C(C)C)c2c1 (stereo not given) | inconclusive: 50.1 µM [inhibitor, single point] | – |
| CN(C)c1ccc(C=c2c3cc(O)ccc3n3c2cc(-c2ccccc2)[n+]3C)cc1 | inconclusive: 29.3 µM [inhibitor, partial curve] | – |
| O=C(O)CCCCCN1C(=O)/C(=C\c2cn(-c3ccccc3)nc2-c2cccs2)SC1=S | inconclusive: 52.1 µM [inhibitor, single point] | – |
| O=C(O)c1ccc(N/N=C/c2ccc(-c3cc(Cl)ccc3Cl)o2)cc1 | – | inactive: 1.78% |
| CCc1ccc(-c2cc(C(=O)N3N=C(C(F)F)CC3(O)C(F)F)c3ccccc3n2)cc1 (stereo not given) | – | inactive: -4.19% |
| O=S(=O)(NCC(Nc1ccc(Cl)cc1)c1ccccc1)c1ccccc1 (stereo not given) | inconclusive: 29.3 µM [inhibitor, partial curve] | – |
| COc1cc(C(=O)N2CCN(Cc3ccc4c(c3)OCO4)CC2)cc(OC)c1OC | – | inactive: 3.11% |
| COc1ccccc1-n1c(-c2ccc(C)cc2)cn2c3c(=O)n(C)c(=O)n(C)c3nc12 | inconclusive: 63.1 µM [inhibitor, single point] | – |

| Compound | Potency | activity change, negative = inhibition |
| --- | --- | --- |
| CCOc1ccc(-c2c(C(=O)N/N=C/c3sccc3C)nnn2-c2nonc2N)cc1 | – | inactive: -7.97% |
| O=C(Nc1nnc(C2CC2)o1)c1ccc(S(=O)(=O)N2CCc3ccccc3C2)cc1 | – | inactive: -9.83% |
| COc1ccc2oc(=Nc3ccc(C(=O)O)cc3)c(C(=O)NCc3ccco3)cc2c1 | inconclusive: 58.5 µM [inhibitor, single point] | – |
| CSc1ccccc1NC(=S)Nc1ccc(S(N)(=O)=O)cc1 | – | inactive: 10.6% |
| CCOc1ccc(-c2cc(-c3nc(-c4cc(OC)c(OC)c(OC)c4)no3)[nH]n2)cc1 | inconclusive: 63.1 µM [inhibitor, single point] | – |
| O=C(C1=C(O)C(=O)N(c2nccs2)C1c1ccccc1)c1cc2ccccc2o1 (stereo not given) | – | inactive: 6% |
| O=C(Nc1cccc(F)c1)c1ccc(-c2ccccc2)s1 | – | inactive: -0.706% |
| CCN1/C(=C/C=C/c2sc3ccccc3[n+]2CC)Sc2ccccc21 | inconclusive: 44.7 µM [inhibitor, partial curve, poor fit] | – |
| c1ccc(-c2cc(-c3ccncc3)nc3ccc4ccccc4c23)cc1 | inconclusive: 44.7 µM [inhibitor, single point] | – |
| COc1cc(C#N)ccc1OCC(=O)Nc1ccc(C)c(S(=O)(=O)N2CCOCC2)c1 | – | inactive: 2.14% |
| Cc1ccc(S(=O)ONc2cccc(NOS(=O)c3ccc(C)cc3)c2)cc1 (stereo not given) | inconclusive: 50.1 µM [inhibitor, single point] | – |
| CC(=O)c1ccc(N2C(=O)N(Cc3cc(C)ccc3C)c3ccccc3S2(=O)=O)cc1 | – | inactive: 8.34% |
| Fc1ccc(F)c(C2=NNC(=Nc3ccccc3F)SC2)c1 | inconclusive: 44.7 µM [inhibitor, partial curve, poor fit] | – |
| CC(C)CCNC(=O)Nc1cc(C(=O)NCc2cccc(F)c2)ccc1N1CCCC1 | inconclusive: 44.7 µM [inhibitor, single point] | – |
| CCC(=O)N1N=C(c2c(-c3ccccc3)c3cc(Cl)ccc3[nH]c2=O)CC1c1ccco1 (stereo not given) | inconclusive: 50.1 µM [inhibitor, single point] | – |
| O=C(O)c1ccc2ncsc2c1 | inconclusive: 58.5 µM [inhibitor, single point] | – |
| O=C(NCC(=O)N1CCCCCC1)c1ccc(Cl)cc1 | – | inactive: -5.63% |
| Cc1cc(C#N)c(C)c(SCc2[nH]nc3c2C(c2ccccc2)C(C#N)=C(N)O3)n1 (stereo not given) | inconclusive: 46.5 µM [inhibitor, partial curve] | – |
| Nc1ccc(C(=O)OCC(=O)N2CCOCC2)cc1[N+](=O)[O-] | – | inactive: 0% |
| CCN(CC)CCOc1ccc2nc(N(C)C)sc2c1 | – | inactive: 1.82% |
| Cc1ccc(Cl)cc1NS(=O)(=O)c1cc2c3c(c1)CC(=O)N3CCC2 | inconclusive: 70.8 µM [inhibitor, single point] | – |
| CCCNC(=O)N1CCN(S(=O)(=O)c2ccc3c(ccn3C)c2)CC1 | inconclusive: 63.1 µM [inhibitor, single point] | – |

| Compound | Potency | activity change, negative = inhibition |
| --- | --- | --- |
| CC(C)c1nc(N2CCN(C(=O)c3ccccc3)CC2)c(C#N)c2c1COC(C)(C)C2 | inconclusive: 29.3 µM [inhibitor, partial curve] | – |
| Cc1ccccc1Nc1c(-c2ccncc2)nc2ccc(Cl)cn12 | inconclusive: 58.5 µM [inhibitor, partial curve, poor fit] | – |
| CC1=C(C)CS(=O)N(S(=O)(=O)c2ccc(Cl)cc2)C1 (stereo not given) | inconclusive: 52.1 µM [inhibitor, single point] | – |
| COc1cc2ncc3c(-c4ccccc4)nn(-c4ccc(C)cc4)c3c2cc1OC | inconclusive: 44.7 µM [inhibitor, single point] | – |
| Cc1cc(O)ccc1C1(c2ccc(O)cc2C)OC(=O)c2ccccc21 | inconclusive: 58.5 µM [inhibitor, single point] | – |
| O=C(NC1CCCC1)C(c1ccncc1)N(C(=O)c1ccco1)c1ccc(F)c(Cl)c1 (stereo not given) | inconclusive: 44.7 µM [inhibitor, partial curve, poor fit] | – |
| CCOC(=O)N1CCC2(CC1)C(C#N)=C(N)Oc1n[nH]c(CSc3ccc(C)cc3)c12 | inconclusive: 26.1 µM [inhibitor, full curve] | – |
| O=C(Nc1ccccc1F)N(Cc1ccc(F)cc1)Cc1nc2ccccc2c(=O)[nH]1 | inconclusive: 23.3 µM [inhibitor, single point] | – |
| O=C1OC(c2cccs2)=N/C1=C\c1ccc(-c2cccc(Cl)c2)o1 | inconclusive: 58.5 µM [inhibitor, partial curve, poor fit] | – |
| Cc1ccc(O)c(-c2n[nH]c3c2C(c2ccccc2F)N(Cc2ccco2)C3=O)c1 (stereo not given) | inconclusive: 28.2 µM [inhibitor, full curve] | – |
| COc1ccc(C2=Nn3c(nnc3-c3ccc(OC)cc3)SC2)cc1 | – | inactive: 4.37% |
| CC(=O)c1ccc(NC(=O)CSc2nccn2Cc2ccc3c(c2)OCO3)cc1 | – | inactive: -4.98% |
| CCc1c(C)nc2nc(-c3ccccc3)nn2c1NCc1ccc(C)cc1 | inconclusive: 44.7 µM [inhibitor, partial curve, poor fit] | – |
| CC1(C)C(/C=C/C=C/C=C/C=C2\N(CCCCS(=O)(=O)O)c3ccc4ccccc4c3C2(C)C)=[N+](CCCCS(=O)(=O)[O-])c2ccc3ccccc3c21 | inconclusive: 44.7 µM [inhibitor, partial curve, poor fit] | – |
| COc1ccc(-c2nc3ccccc3o2)cc1NC(=O)c1ccc(-c2cccc(Cl)c2C)o1 | inconclusive: 63.1 µM [inhibitor, single point] | – |
| O=C(c1cc2nc(-c3ccc(F)cc3)cc(C(F)(F)F)n2n1)N1CCCCC1c1cccnc1 (stereo not given) | inconclusive: 50.1 µM [inhibitor, single point] | – |
| COc1cc2c3nnc(-c4ccccc4)c-3cn(Cc3ccc(F)cc3)c2cc1OC | inconclusive: 52.1 µM [inhibitor, single point] | – |
| O=C1[C@H]2[C@@H](c3ccccc3)N[C@]3(CCCN(Cc4ccc(Cl)cc4)C3=O)[C@H]2C(=O)N1Cc1ccccc1 | inconclusive: 31.6 µM [inhibitor, partial curve] | – |
| CCN1C(=O)/C(=C2/Sc3ccccc3N2CC)S/C1=N\c1ncn[nH]1 | inconclusive: 50.1 µM [inhibitor, single point] | – |
| Cc1cc(C)cc(C(=O)Oc2cc(C)[nH]c(=O)c2[N+](=O)[O-])c1 | – | inactive: -2.47% |
| CC(=O)c1ccc(N2CCN(C(=S)Nc3ccccc3C(F)(F)F)CC2)cc1 | – | inactive: 25.6% |
